# Reference: the supplement of paper PMC8285479
# Counter-ions that a name gives are not always drawn. ± gives the standard deviation of the averaged measurements. Whole data set: some 1,900 compounds, median “normalised cell viability (NPI; 0 = phenylarsine oxide control, 1 = DMSO control)” near 1, cut for the lowest 2% near 0.039. The list shows a part of the results.
# Tested on: NCI-H1944
# Test: normalised cell viability (NPI; 0 = phenylarsine oxide control, 1 = DMSO control) (fraction of DMSO control); NCI-H1944 is a non-small cell lung cancer line; higher = more viable cells (less compound toxicity)
# Conditions: 6 days
# [1] = glucocorticoid arm: hydrocortisone 2.75 uM co-treatment, compound 1 µM
# [2] = glucocorticoid arm: hydrocortisone 2.75 uM co-treatment, compound 5 µM
# [3] = glucocorticoid arm: hydrocortisone 2.75 uM pre-treated 2 days and continued, compound 1 µM
# [4] = glucocorticoid arm: hydrocortisone 2.75 uM pre-treated 2 days and continued, compound 5 µM
# [5] = glucocorticoid arm: vehicle, compound 1 µM
# [6] = glucocorticoid arm: vehicle, compound 5 µM
# 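Also: CTB read-out in 384-well plates, mean of triplicate wells, normalised per plate against 1 µM phenylarsine oxide and 0.1% DMSO, compounds added 24 h after seeding.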
SMILES,normalised cell viability [1],normalised cell viability [2],normalised cell viability [3],normalised cell viability [4],normalised cell viability [5],normalised cell viability [6]
"C[C@H](O)[C@H](O)[C@H]1CNc2nc(N)[nH]c(=O)c2N1 [(6R)-5,6,7,8-Tetrahydro-L-biopterin dihydrochloride]",1.02 ± 0.011,1.01 ± 0.026,0.923 ± 0.18,1.001 ± 0.009,1.02 ± 0.01,1.02
Cn1cnc(=N)c2[nH]cnc21 [3-Methyladenine],1 ± 0.014,1.01 ± 0.014,0.9967 ± 0.0015,1.01 ± 0.01,1.001 ± 0.0081,1 ± 0.016
"Nc1ncnc2c1ncn2[C@@H]1O[C@@H]2COP(=O)(O)O[C@H]2[C@H]1O [Adenosine 3',5'-cyclic monophosphate]",0.986 ± 0.014,0.9813 ± 0.007,0.998 ± 0.011,0.965 ± 0.019,0.991 ± 0.016,0.9797 ± 0.0074
CC(C)C(=O)c1c(C(C)C)nn2ccccc12 [Ibudilast],1.017 ± 0.0058,0.984 ± 0.02,1.01 ± 0.015,0.997 ± 0.024,1.013 ± 0.0058,1.013 ± 0.0058
CC(CN(C)C)CN1c2ccccc2CCc2ccccc21 (centres undefined) [Trimipramine maleate],0.9743 ± 0.0072,0.928 ± 0.015,0.801 ± 0.34,1.01 ± 0.01,0.9953 ± 0.0064,0.993 ± 0.0066
COC(=O)[C@H]1[C@H]2C[C@H]3c4[nH]c5ccccc5c4CCN3C[C@H]2CC[C@@H]1O [Rauwolscine hydrochloride],0.9973 ± 0.0038,1.01 ± 0.011,0.897 ± 0.18,0.998 ± 0.013,0.9967 ± 0.0011,0.9827 ± 0.0083
COC(=O)C(C)(N)Cc1ccc(O)cc1 (racemic) [alpha-Methyl-DL-tyrosine methyl ester hydrochloride],1.004 ± 0.01,1.01 ± 0.034,1.01 ± 0.023,0.999 ± 0.011,0.9943 ± 0.0057,1.004 ± 0.0098
CC(C)NCC(O)COc1cccc2[nH]ccc12 (centres undefined) [Pindolol],1,1 ± 0.013,0.9967 ± 0.0023,1.03 ± 0.021,1.01,1.02 ± 0.021
O=C(Nc1ccc([N+](=O)[O-])cc1Cl)c1cc(Cl)ccc1O [Niclosamide],1.013 ± 0.0058,1.03 ± 0.02,1.017 ± 0.0058,0.901 ± 0.22,1.007 ± 0.0058,1.01 ± 0.015
Cc1cc(C)nc(NS(=O)(=O)c2ccc(NC(=S)NC(=O)COc3ccc(Br)cc3Cl)cc2)n1,1.01 ± 0.016,1.04 ± 0.015,1.02 ± 0.011,1.03 ± 0.01,1.01 ± 0.01,1.01 ± 0.013
C#C[C@]1(O)CC[C@H]2[C@@H]3CCC4=Cc5oncc5C[C@]4(C)[C@H]3CC[C@@]21C [Danazol],0.998 ± 0.001,1 ± 0.021,0.991 ± 0.022,1.01 ± 0.027,1.007 ± 0.0058,1.013 ± 0.0058
CC12CC3CC(C)(C1)CC(N)(C3)C2 [Memantine hydrochloride],1.01 ± 0.011,1.03 ± 0.038,1.01 ± 0.01,1.1 ± 0.082,0.9993 ± 0.0011,1.01 ± 0.01
CC12CC3CC(C)(C1)CC(N)(C3)C2 [Memantine HCl],1.01 ± 0.011,1.003 ± 0.0058,1.03 ± 0.015,1 ± 0.013,1.01,0.993 ± 0.0066
N#Cc1c(Oc2ccc(F)c(NC(=O)Cc3cccc(C(F)(F)F)c3)c2)ccc2nc(NC(=O)C3CC3)sc12,1.02 ± 0.01,0.992 ± 0.014,1.02,0.999 ± 0.018,1.01 ± 0.011,0.9933 ± 0.0083
CO[C@H]1C[C@@H]2CC[C@@H](C)[C@@](O)(O2)C(=O)C(=O)N2CCCC[C@H]2C(=O)O[C@H]([C@H](C)C[C@@H]2CC[C@@H](OC(=O)C(C)(CO)CO)[C@H](OC)C2)CC(=O)[C@H](C)/C=C(\C)[C@@H](O)[C@@H](OC)C(=O)[C@H](C)C[C@H](C)/C=C/C=C/C=C/1C [Temsirolimus (Torisel)],0.804 ± 0.039,0.744 ± 0.011,0.841 ± 0.021,0.813 ± 0.05,0.722 ± 0.046,0.671 ± 0.0097
CO[C@H]1C[C@@H]2CC[C@@H](C)[C@@](O)(O2)C(=O)C(=O)N2CCCC[C@H]2C(=O)O[C@H]([C@H](C)C[C@@H]2CC[C@@H](OC(=O)C(C)(CO)CO)[C@H](OC)C2)CC(=O)[C@H](C)/C=C(\C)[C@@H](O)[C@@H](OC)C(=O)[C@H](C)C[C@H](C)/C=C/C=C/C=C/1C [CCI-779; Temsirolimus],0.868 ± 0.026,0.756 ± 0.029,0.915 ± 0.021,0.832 ± 0.036,0.79 ± 0.015,0.697 ± 0.045
Cc1ccc(C(=O)Nc2cccc(C(F)(F)F)c2)cc1Nc1nc(-c2cccnc2)nc2c1cnn2C,0.991 ± 0.018,1.04 ± 0.021,1.06 ± 0.011,1.06 ± 0.01,0.783 ± 0.051,0.833 ± 0.04
O=C(O)CCCN1CCC(O[C@@H](c2ccc(Cl)cc2)c2ccccn2)CC1 [Bepotastine Besilate],1.03 ± 0.015,1.02 ± 0.011,1.03 ± 0.015,1.04 ± 0.017,1.017 ± 0.0058,1 ± 0.018
CN(C(=O)CCCOc1ccc2[nH]c(=O)ccc2c1)C1CCCCC1 [Cilostamide],1 ± 0.014,1.02 ± 0.025,0.9953 ± 0.0081,1.005 ± 0.0071,1.013 ± 0.0058,1.03 ± 0.01
O=C(O)c1cc2cc(F)ccc2[nH]1 [5-Fluoroindole-2-carboxylic acid],1.003 ± 0.0061,1.01 ± 0.028,1.01 ± 0.021,1.02 ± 0.021,1.001 ± 0.0083,1.01 ± 0.01
CN1CCN(c2ccc3nc(-c4c(N)c5c(F)cccc5[nH]c4=O)[nH]c3c2)CC1 [Dovitinib Dilactic acid (TKI258 Dilactic acid)],0.757 ± 0.01,0.588 ± 0.0072,0.9273 ± 0.0055,0.81 ± 0.042,0.359 ± 0.0061,0.19 ± 0.018
CN1CCN(c2ccc3nc(-c4c(N)c5c(F)cccc5[nH]c4=O)[nH]c3c2)CC1 [Dovitinib (TKI-258)],0.888 ± 0.0072,0.693 ± 0.049,0.9123 ± 0.0049,0.865 ± 0.029,0.781 ± 0.018,0.508 ± 0.021
N[C@@H](COP(=O)(O)O)C(=O)O [O-Phospho-L-serine],1.013 ± 0.0058,1.01 ± 0.015,1.017 ± 0.0058,1.05 ± 0.093,0.9993 ± 0.0097,1.01 ± 0.013
CCCCc1oc2ccccc2c1C(=O)c1cc(I)c(OCCN(CC)CC)c(I)c1 [Amiodarone hydrochloride],0.981 ± 0.0085,0.387 ± 0.12,1.005 ± 0.0087,0.892 ± 0.031,1.01 ± 0.013,0.151 ± 0.12
CCc1ccc(OCc2ccccc2C(=O)Nc2ccc3nc(C)cc(N)c3c2)cc1,1.04 ± 0.011,0.00134 ± 0.00041,1.05 ± 0.017,0.00123 ± 0.00019,1.023 ± 0.0058,0.00113 ± 0.0006
CN(C)CCc1c[nH]c2ccc(CS(=O)(=O)N3CCCC3)cc12 [Almotriptan Malate],1.02 ± 0.017,1.03 ± 0.01,1.023 ± 0.0058,1.023 ± 0.0058,1.013 ± 0.0058,1.003 ± 0.0058
CN1CCN2c3ccccc3Cc3ccccc3C2C1 (centres undefined) [Mianserin HCl],1 ± 0.018,1.02 ± 0.024,0.997 ± 0.015,1.02 ± 0.018,0.9983 ± 0.0021,0.9877 ± 0.0059
CN1CCN2c3ccccc3Cc3ccccc3C2C1 (centres undefined) [Mianserin hydrochloride],1 ± 0.0095,0.963 ± 0.015,0.9977 ± 0.0025,1.03 ± 0.068,0.9717 ± 0.0085,0.982 ± 0.011
CN1CCCN(C(=O)c2cccc(-c3ccc(/C=C4/C(=O)Nc5ccc(Cl)cc54)o3)c2)CC1,0.717 ± 0.032,0.214 ± 0.24,0.937 ± 0.021,0.887 ± 0.059,0.282 ± 0.017,0.00113 ± 0.00047
